Patent US20090130188A9, “Acrylic pressure sensitive adhesives” (National Starch and Chemical Investment Holding Company, priority 2005, published 2009)
The name of at least one read-out is uncertain.

Assay: Solubility parameter of solvents computed from enthalpy of vaporization
Type: physicochemical
Conditions: component solvent, calculated at 25° C. from published enthalpy of vaporization

Row | SMILES | δ (solubility parameter) [MPa^1/2]
1 | CCCC(C)CC (centres unmarked) [3-Methylhexane] | 14.94
2 | C1CCCCC1 [Cyclohexane] | 16.81
3 | CC(C)CC(C)C [2,4-Dimethylpentane] | 14.29
4 | CCc1ccccc1 [Ethylbenzene] | 18.02
5 | CC(C)C(C)(C)C [2,2,3-Trimethylbutane] | 14.27
6 | CCCC(C)(C)C [2,2-Dimethylpentane] | 14.19
7 | CCC(C)(C)CC [3,3-Dimethylpentane] | 14.54
8 | CCCC(C)C [2-Methylpentane] | 14.38
9 | CCC1CCCC1 [Ethylcyclopentane] | 16.27
10 | Cc1ccc(C)cc1 [p-Xylene] | 17.99
11 | CC(C)C(C)C [2,3-Dimethylbutane] | 14.30
12 | CCC(C)(C)C [2,2-Dimethylbutane] | 13.73
13 | CCC(C)CC [3-Methylpentane] | 14.59
14 | C[C@@H]1CC[C@H](C)C1 [cis-1,3-Dimethylcyclopentane] | 15.46
15 | CCC(CC)CC [3-Ethylpentane] | 15.10
16 | CC1CCCC1 [Methylcyclopentane] | 16.11
17 | CCOC(C)=O [Ethyl acetate] | 18.40
18 | CCCCC(C)C [2-Methylhexane] | 14.81

Same assay, conditions: component solvent, calculated at 25° C. from published enthalpy of vaporization; listed as ethyl acetate

Row | SMILES | δ (solubility parameter) [MPa^1/2]
19 | CCOC(C)=O [Ethyl acetate] | 18.4

Same assay, conditions: component solvent, calculated at 25° C. from published enthalpy of vaporization; listed as methylcyclopentane

Row | SMILES | δ (solubility parameter) [MPa^1/2]
20 | CC1CCCC1 [Methylcyclopentane] | 16.1
